According to patent US20250270306A1 (OSPEDALE SAN RAFFAELE S R L, published 2025):

Molecular target: T1, Recombinant human IGFBP3 (human, UniProt P17936)
T1 construct: also called rhIGFBP3; hIGFBP-3
Assay: competitive ELISA: plate coated with rhIGFBP3 4 µg/ml; ecto-TMEM219 10 µg/ml added with the antibody (10 µg/ml per paragraph 174); detection anti-HisTag HRP; blocked ligand: ecto-TMEM219
Protocol: FIG. 5. IGFBP3-Ecto-TMEM219 binding in the presence of newly generated anti-IGFBP3 mAbs (n=11, YU139 antibodies) or Ecto-TMEM219 alone or monoclonal anti-IGFBP3 commercially available (LSBIO LS-C45037/clone 83.8F9, mAnti-IGFBP3) tested by using a competitive ELISA screening assay. In this assay, the microtiter plate was coated with rhlGFBP3, and labeled ecto-TMEM219 added. Each candidate monoclonal antibody was added and its ability to displace ecto-TMEM219 was assessed by measuring Absorbance after the plate was washed. Boxed are anti-IGFBP3 antibodies able to achieve the highest reduction in Ecto-TMEM219 signal (1-way ANOVA, p<0.00001).
Microplate was coated with 50 μl/well of 4 μg/ml rhlGFBP3 dissolved in PBS or PBS alone (no coating). Plate was incubated 90 minutes at 37° C. and washed with PBS (300 μl/well) and incubated with the blocking reagent (200 μl/well) 2 hours at room temperature. Samples were then diluted in the diluent solution (50 μl/well) and added to the plate as follows: diluent solution (none), ecto-TMEM 10 μg/ml, ecto-TMEM 10 μg/ml+anti-IGFBP3 mAbs 10 μg/ml, anti-IGFBP3 mAbs 10 μg/ml alone. After washing steps, plate was then incubated at room temperature for 1 hour with anti 6×His tag HRP diluted 1:2000 in Diluent solution (50 μl/well). ELISA plate was then read after adding visualization solution at ELISAreader and adsorbance was measured.

T1 sequence (P17936 28-291 limits assumed): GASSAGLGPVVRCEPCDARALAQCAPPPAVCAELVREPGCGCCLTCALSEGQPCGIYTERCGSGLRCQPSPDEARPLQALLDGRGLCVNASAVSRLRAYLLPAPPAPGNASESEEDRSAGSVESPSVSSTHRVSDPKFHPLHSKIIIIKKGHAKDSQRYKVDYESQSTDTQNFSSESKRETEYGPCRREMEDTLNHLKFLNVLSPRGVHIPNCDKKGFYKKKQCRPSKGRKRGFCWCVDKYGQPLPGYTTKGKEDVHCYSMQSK

B1: YU139-C02 (Fc fusion)
VH: EVQLVQSGAEVKKPGASVKVSCKASGYTFTSYGISWVRQAPGQGLEWMGWISAYNGNTNYAQKLQGRVTMTTDTSTSTAYMELRSLRSDDTAVYYCARVPSEYYDFWSGYYTEENAFDIWGQGTMVTVSS
VL: [… about 100 residues …]TFGQGTKVEIK
binding result: binds
